Certain results were filed several times, with different values. This list holds those alone. The source may hold further records. The records of an entry repeat one measurement in other runs, samples, wells, individuals or studies. Marks such as (2×) count equal records among those shown. Each block holds one compound with its values, some of them ahead of it.
System: 519858-162-T-J1-PDC complex spheroid growth, % test/control
Experiment: Anticancer human tumor 519858-162-T-J1-PDC patient-derived colon adenocarcinoma cell line growth inhibition [Asc]
Conditions: for viability, T/C: stronger effect = lower value
Description: Multicellular complex tumor spheroid response to apoptosis pathway targeting inhibitors Alrizomadlin, Pelcitoclax, and Dasminapant in combination with a variety of drugs and investigational agents in selected tumor cell lines
The MDM2 inhibitor alrizomadlin, the Bcl-2/Bcl-xL inhibitor pelcitoclax, and the IAPs inhibitor dasminapant were evaluated both individually and in combination with standard of care and investigational anticancer small molecules within a complex spheroid model of solid tumors. . Complex spheroids include a stromal component modeled by human endothelial cells (HUVEC) and fibroblasts modeled by human mesenchymal stem cells (MSCs). The concentration ranges selected for each drug and investigational agent were based upon clinically achievable concentrations if the clinical Cmax of the agent was known.
Compounds. The drugs and investigational agents: alrizomadlin (APG-115; NSC831270), pelcitoclax (APG-1252; NSC835773), dasminapant (APG-1387;NSC834197), TAK-243 (NSC785004), copanlisib (NSC809693), olaparib (NSC753686), talazoparib (NSC767125), cobimetinib (NSC 768068), eltanexor (KPT-8602, NSC 794443), abemaciclib (NSC 768073), sotorasib (NSC818433), adagrasib (NSC 831453), MRTX-1133 (NSC 836407), Iadademestat (ORY1001, NSC 806812), and RMC-4630 (NSC839698), were obtained from the NCI Developmental Therapeutics Program Chemical Repository. The FDA-approved anticancer drug set is available from the Developmental Therapeutics Program at https://dtp.cancer.gov/organization/dscb/obtaining/available plates.htm. […] The stock solutions were prepared in dimethyl sulfoxide (DMSO, Sigma-Aldrich, St. Louis, MO, cat. D2650) at 800-fold the tested concentration and stored at -70 degrees C prior to their use. All drugs and investigational agents were tested over a range starting from a high concentration at or near the clinical Cmax and decreasing in half-log increments. If the clinical Cmax for an agent had not been determined, the highest concentration tested was 10 microM.
The patient-derived cancer (PDC) cell lines include five colon adenocarcinomas: 186277-243-T-J2-PDC, 616215-338-R-J1-PDC, 439559-082-T-J2-PDC, 463943-066-T-J2-PDC, and 519858-162-T-J1-PDC; three pancreatic carcinomas: 323965-272-R-J2-PDC, 521955-158-R6-J3-PDC, and 521955-158-R2-J5-PDC; two uterine sarcomas: 327498-152-R-J2-PDC and 993429-296-R-J1-PDC; two rhabdomyosarcomas: 755483-174-R-J1-PDC and 772245-204-R-J1-PDC; two soft tissue sarcomas: 126254-015-R-J1-PDC and 494315-158-R-J1-PDC; two malignant fibrous histiocytomas: 317291-083-R-J1-PDC and 596521-263-R-J1-PDC; two breast carcinomas: 171881-019-R-J1-PDC and 885512-296-R-J2-PDC; and one ovarian carcinoma: 6556581-035-R-J-PDC were obtained from the NCI PDMR, (https://pdmr.cancer.gov). The established cell lines HSSY-2 synovial sarcoma (RRID:CVCL 8719), SYO-1 synovial sarcoma (RRID:CVCL_7146), MPNST malignant peripheral neural sheath tumor were obtained from the Sloan Kettering Institute. The following established cell lines were purchased from the American Type Culture Collection (ATCC, Manassas, VA), Sor the received from the NCI repository:, PANC-1 pancreatic carcinoma (CRL-1469, RRID:CVCL_0480), OVCAR-5 ovarian carcinoma (RRID:CVCL_1628), OVCAR-8 ovarian carcinoma (RRID:CVCL_1629), , MCF-7 breast carcinoma (CRL-12584, RRID:CVCL_0031), MDA-MB-231 breast carcinoma (CRL-12532, RRID:CVCL_0062), NCI-H1876 small cell lung carcinoma (CRL-5902, RRID:CVCL_1503), NCI-H510A small cell lung carcinoma (HTB-184, RRID:CVCL_1565), NCI-H1417 (CRL-5869, RRID:CVCL_1469), and NCI-H196 small cell lung carcinoma (CRL-5823, RRID:CVCL_1509). Dr. Peter Houghton (Greehey Children's Cancer Research Institute, University of Texas Health Science Center, San Antonio, TX) provided Rh-18 rhabdomyosarcoma (RRID:CVCL_1659). Pooled donor human umbilical vein endothelial cells (HUVEC, Lonza, cat. CC-2519) and human mesenchymal stem cells (hMSC, Lonza, cat. PT-2501) were purchased from Lonza (Walkersville, MD).
Cell Culture. […]
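Note: seven day drug exposure begun three days after spheroid seeding.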
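Throughout, for viability, T/C: 100% = DMSO vehicle wells and lower values mean less viable spheroid.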

SMILES: Cc1c(S(C)(=O)=O)c(-c2cc(F)cc(N3CCN(c4ccc(NS(=O)(=O)c5ccc(NC(CCN6CCC(C(=O)OCCCP(=O)(O)O)CC6)CSc6ccccc6)c(S(=O)(=O)C(F)(F)F)c5)cc4)CC3)c2)c(-c2ccc(Cl)cc2)n1C(C)C (configuration not stated)
viability, T/C (compound alone 0.1 µM): 109, 98.5, 84.8, 91.8, 77.7, 88.6, 59.7% | viability, T/C (compound alone 0.316 µM): 98.3, 79.8, 112, 94.8, 91.3, 103, 61.1% | viability, T/C (compound alone 3.16 µM): 72, 96.5, 99.8, 88.1, 80.3, 108, 61.8% | viability, T/C (compound alone 10 µM): 85, 82.8, 91.9, 81.2, 60.1, 80.3, 83.6%

IC50 (compound alone): 99.4 nM, > 1 µM, 153 nM
SMILES: COc1c(OCCCN2CCOCC2)ccc2c3n(c(=NC(=O)c4cnc(N)nc4)nc12)CCN3

SMILES: CCN1C(C(=O)NC23CCC(C(=O)O)(CC2)CC3)C(c2cccc(Cl)c2F)C2(C(=O)Nc3cc(Cl)ccc32)C12CCCCC2 (configuration not stated)
viability, T/C (compound alone 0.00949 µM): 99.5, 85.6, 85.7, 94.7, 94.8, 70.7, 86.2, 71.7, 98.2% | viability, T/C (compound alone 0.03 µM): 119, 93.2, 86.6, 85.7, 74.1, 97.8, 77.8, 92, 80.5% | viability, T/C (compound alone 0.0949 µM): 82.5, 78.6, 110, 74.7, 100, 99.2, 81.3, 76.8, 75.9% | viability, T/C (compound alone 0.3 µM): 105, 98.2, 97.4, 87.5, 108, 91.3, 85, 74.6, 96.2% | viability, T/C (compound alone 0.949 µM): 103, 83.6, 110, 97.2, 63.5, 111 (2×), 64.1, 73.1% | viability, T/C (compound alone 3 µM): 91.6, 93.4, 71.5, 97.7, 101, 78.5, 102, 65.8, 86.2%

SMILES: CNC(C)C(=O)NC1CN(S(=O)(=O)c2cccc(S(=O)(=O)N3CCC4CCC(C(=O)NC(c5ccccc5)c5ccccc5)N4C(=O)C(NC(=O)C(C)NC)C3)c2)CCC2CCC(C(=O)NC(c3ccccc3)c3ccccc3)N2C1=O (configuration not stated)
viability, T/C (compound alone 0.00316 µM): 83.5, 95.4, 60.4, 100, 117, 85.2, 83.8, 92.5, 99.4% | viability, T/C (compound alone 0.01 µM): 88.5, 66.1, 86.4, 89.1, 90.4, 82.1, 88.8, 105, 93% | viability, T/C (compound alone 0.0316 µM): 85.9, 89.5, 86.7, 115, 93.5, 92.8, 87.7, 99.5, 111% | viability, T/C (compound alone 0.1 µM): 79, 87.9, 124, 111, 93.9, 97.9, 89.7, 102, 116% | viability, T/C (compound alone 0.316 µM): 79.6, 93.4, 106, 121, 111, 85.4, 107, 96.8, 112% | viability, T/C (compound alone 1 µM): 69.1, 85.1, 83, 96, 95.2, 88.4, 76.8, 87.6, 101%

Source: PubChem BioAssay AID1963421 (Molecular Pharmacology Branch, DTP, NCI, 2024)
